Variants at the background level are over-represented here.
B1: TPR 5TU (parent)
chain: GGAUCUUCUCGAUCUAACAAAAAAGACAAAUCUGCCACAAAGCUUGAGAGCAUCUUCGGAUGCAGAGGCGGCAGCCUUCGGUGGCGCGAUAGCGCCAACGUUCUCAACUAUGACACGCAAAACGCGUGCUCCGUUGAAUGGAGUUUAUCAUG

Variants of: B1
Test: polymerase ribozyme fitness, log enrichment relative to wild type (log ratio); higher = more active; in vitro selection for triplet polymerase activity
Method in brief: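 Fitness is a logarithmic measure of how a genotype enriched relative to the wild type, with replicate averages weighted by inverse variance. The logarithm uses base 2, and enrichment came from Illumina sequencing of input and output libraries. Those libraries were PCR-built, transcribed mutants of each subunit of a heterodimeric triplet polymerase ribozyme, passed through one triplicate in vitro selection round that included frozen incubation at −7 °C, gel excision of extended constructs and streptavidin-bead capture. Genotypes were kept only if they had ≥10 input reads and ≥1 read per output.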

Polymerase ribozyme fitness (log ratio), ≤ -4.2:
U7G U15A A41G G71C C87G G143U U144A G152A
U6C G42C C51U C75A C116U
U7A A17U U56A G74A C85A G92U G112A
U7C U61A C75G U90C C93G
U7C A24G A29G G70U G94U U135C G141U
U6G C54U C87A C99U U111A G152A
C8U C35A G67U
U6G G50C G133U U146G
U7G A22G C76U U90G C103G U148A
C8A A19U A23U U56G U61A G86U G88C A98U C125A
C8A C103G C108G G124C U144A U145G
C8A C57G C87U
C8U C14U A91G U109G
U9A A12G C43G G58C C93A G128U U145C U148A U151A
U7A U90G
U7A A16U G25C C27U U56A G80U G92A U104G A106G
C8U A24C G80C C93G
U7A U55A G62U C72U G92C
U6C G62A G71A G124C
U7G A17U C35U C63U G94U C99G C123U G141C
C8G C18G G46A U56G C85A U135G U144C
C8G A16C G42C G58A G59C C95G
U7G A28C A30U U44A U134A
U7G U56A C85U A91U C95U U104G U134C
U6G G50C U56A C75U U82C C108G
C8A C10G A29C A30G U90G U104G A119U G141C
C8G G11A A21U C51U U82C C95G C105A A121U
U7G A16C C35A A40U U53A C79U C87U U135C
U7A A29C G68A C95A
C8G C14U U53G G83U G88U C93G C105U G136U A137U U146G U148A
C8G A19G C85G C99A U101G C114U A142G G143U A147C
U6G A19U C35A G83U G94C A106G
C8U A20C A52C C85U
C8G A23U C72U G88A G100C C131G C132A
U6A G11U G48C C87A C105U U144A
U7G U9G A41C C51U G58A C69U C93U C108U
C8U A16G C79U G143A
U6A U55A A91U U101G U111A
C8G A39C C51U U56A G88C U135A A137C
U7G U15G A24U C36U C54U U56A A64U C99U
U6G A29U C76U C87U U90A C95G A106U A107C G133A
U7G U45G A49C G83A C95A
U7G A49G U61G C76G G88C A106U
C8A A107C C108G U135A A142U
C8G U9A A21U C93U C131A
U7G U31C G86U C108A
C8A C27G G50C G62C C96G
C8U G58C A60C C85G A97G U148A
U6A G42U G62A C69U C93A U101G
U6A C85A C108U C114U
C8G U9G A22C C76G G88U A113C A119U
C8G G94U C95U U151G
U6G A20G U31A A41G U55G C87A A147G
C8G A52G C87U
C8A A26U U55A G83A C87G A98G A142C C149A
C8A A26U A29C U56A G84U U101G G117A
C8A A52C G88C A91C
U6G C8G G34A C93U U127C
U6C C8A C96U C105A A138U
C8G A12C G50U C54U U55C A66U G80U G86A C99U A121C G140C A147G
C8A U33C U44G U61A G81A G152C
U6G A64U U82A C87A
U6G A12C C14U A19U A24U A52C G67U C99U
U6C A26G A110G C118A
U6A C85A C93A G141U
C8G A40G C85G G112U C114U A137C
U7A A22C G71A A73U G88U A91C G126U A137G
U7G C75A C85G C95A C149A
C8G A52U C85U C95G G124U U135A
U6A G34C A66G G86U A107C G141U
U7C C8A U55A U78A C85U C93U
C8U A12U A30C A47U U55G C87G C108U G133A G141U
U6A U33C A49C A91C A138G
U6G U13C U55A G67A U78A A97C A107C A115G U144G U151A
C8U A20G A30U C35G A39C C96A G126A
C8G A16G U53G C57A A91C C95G A113U U145C
C8U U134A
U7G C87A U102C G128A
C8A G48U G58C C103G
C8G G94C A106C C116U
C8U G48A U55G G71A U78G G83C G86A A89U U135G G143A
U7G A21C C57U A60C G80A G86C C125U A150C
U6C G11A A23C G34A C69A G81A G100C
U6C C27G G42A C43A G59U G83A C99A U101C U145G
C8G C63G G68U G86A U127A C131A
C8G A17U A20U A47G G68A G83C C87U C132G
U7G A52U U61A C93U A121G A137U
C8A G34C G88A A97C U102C A106C C116G G136U
U6C A47C C76G C79U C93A C108G
U6C U15G U31A G94A C95A U148C
U7C G50A C93G C125U U148A A150G
U7G G71C C95U C105A A142U
C8U C87A G88U C103A G117A
U7G A30U C63U C87G C105G U111C
C8G A16G U53G C57A A91C C95G A113U
C8U A21C A23G A91G A142C
C8U G59U G67C G74A U77G C93G C116A
U6C A12G C43A A60G C95U C114G
C8G A28C G50A
U6G A24U C75U C85U A91C C93G U145A
C8G A26C G42A C57A C87A A91U C116A U148A C149G
C8A C18U C57G G84A U101G A115G
C8G A29U C32A U53A U82G
U6C A20C G46A G50A U53A U102G A113C U134A
U7A A37C A49G G68C C85U
C8U C36A U45C G117C
U7A C8U G84A C99G C118U G143U
U7C A16G A26U U109G
U6G C14U A37U C51U U55G C105U C149A
C8A U31C C38U A47U C93G G143C U146C
U7A A20C A24U C54A C75G C76G U78G
U6C A21U A23G A64G C75G A91G G100A A120G A147C
C8G C93G A150G
C8A G68A C76G C85U U90A C93G A107U
U7G C51U G67C G94C U148C
U6G A19C U77G C87G C95A U130A
C8G A12C A20U U31G C32G C51A C93G U102A A121C C125G
U7C A29C C95A A122G
U7C A16U A19C G46C U90G C95A U102G U127C U148A
U6G A41G G50A C103G A115C U148A
U6C A24U G80C A91U C108G
C8A C85A A91C G136U C149A
C8U U9G A30U U53A C93U C116U
U7A G50A U78A C79G G86A C87A C99G A142C
C8G U53C C76A G92U
U7A A19U G70U C75U C103G A122G
C8A A17G A21U C38U G86A C99G
C8U A23U A110G A138U U145G
U6C A39U G67U U90C G94A G141U
U7A G58C G88U C99A C149U
C8U G42C G68C A106C G141A U145A
U6G U56A C95U C96G A110G A119G G152U
U7A G68A G80A G84U C105U
U7A U9G C10U A12G A24G G42C C87A C93G C103G G124C
U7A A41C A47C A52U G74A U102G A119U G136C U139G U146G
C8A A26U U44A A49C G74U C85G C108A U111A
C8G A52C A73U G83A
C8G A28G C87G C96U U130C
U7G A12G A17U U56C G74C C85A G100C
C8G A49C G74A C85A C108A
U7A A49C G86A G88A C116A A119U C131U
U6G U53A G71U C75U C76A A97G A106U G152A
C8G C76A G92U
C8A G59C G67C G94U C96U
C8U G80U C85A
U6A G25U C38A C87A G88A C96U A137C
C8A C27U A29G A49G G58A
U6G C10U C38G C93G A142C
C8G U33C A39C G65A C96U C132U U139G
U6A U13A U15A G58C C87G A98G
C8U C54U G59C C79G
U7C C10U A22U A40U U55A G84U C118A A119C C149G
U7G U53A C54G U55G A121C U135G C149U
C8A G48C C85G C96U A137U G141U
C8A A91C
U7G C18A A23G A52G C93A G152U
C8A C43U A47C C54U G67C G71U U109C C116U A120G
C8U G11A G84A A89G
C8G U9C G50C A60U C75G U82C C116U
C8U A24G U61G G70A G92U C132G
C8U A26U A49G A73C A91G A121U
C8A G11A C32A G48U C57U A64G G83U C103A A106U U145G
U6G A16G A21G C32G G58U C75U
U6G A28U C85A G136U
C8G C18U A19G A40C U55A G74C U78G
U6G G25U U109G
C8U U55A G81A C93G U144G
